From PubChem BioAssay AID1030 (National Center for Advancing Translational Sciences (NCATS), 2008)
Hit rate of the full screen: of about 220,000 compounds, about 16,000 (7.3%) were called active. The shares of active, inactive and inconclusive entries below differ from those in the screen. Calls follow the shape of the dose curve; as a rule, active = well fitted inhibition curve with a large enough effect (not every such curve was filed as active); inconclusive = small, poorly fitted or top-dose-only effect, or another doubt; inactive = no such curve, though single readings can be large or run the other way. Potencies of inconclusive entries are left out as doubtful fits.
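For activity, negative = inhibition in this document: plate controls were no enzyme wells and a reference inhibitor.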
Potency is read from the fitted curve at half-maximal effect; tags tell the direction and shape of the fitted curve.

Each compound was assayed against Aldehyde dehydrogenase 1A1 (Homo sapiens) (UniProt P00352) (assay: qHTS Assay for Inhibitors of Aldehyde Dehydrogenase 1 (ALDH1A1)). Details: Purified ALDH1A1, NADH fluorescence, propionaldehyde substrate; series mostly up to 75.3 µM; activity, negative = inhibition: at the top concentration.
UniProt P00352, sequence (P00352 whole entry, looked up): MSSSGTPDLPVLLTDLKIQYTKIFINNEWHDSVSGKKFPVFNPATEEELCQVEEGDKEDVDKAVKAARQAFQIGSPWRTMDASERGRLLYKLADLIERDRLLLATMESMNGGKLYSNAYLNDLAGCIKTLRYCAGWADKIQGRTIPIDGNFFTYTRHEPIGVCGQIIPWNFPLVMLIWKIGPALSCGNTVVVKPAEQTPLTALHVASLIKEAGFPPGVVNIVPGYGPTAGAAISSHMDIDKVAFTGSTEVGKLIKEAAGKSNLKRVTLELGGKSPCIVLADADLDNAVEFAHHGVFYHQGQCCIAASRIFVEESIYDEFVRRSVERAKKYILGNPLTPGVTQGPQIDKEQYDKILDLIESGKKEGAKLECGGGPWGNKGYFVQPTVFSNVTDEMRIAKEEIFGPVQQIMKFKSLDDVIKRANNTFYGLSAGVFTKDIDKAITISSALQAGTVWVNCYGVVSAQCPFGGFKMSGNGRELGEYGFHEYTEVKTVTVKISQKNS
`O=S(=O)(NCCc1ccccc1)c1cccc(S(=O)(=O)N2CCOCC2)c1` was tested, and the “activity, negative = inhibition” value was inactive: -3.52%.
For `CN=c1scc(C)n1/N=C/c1ccc(O)c(O)c1O`, the Potency was active: 3.16 µM.
For `C=CCC1(NCc2ccco2)CCN(CC)CC1`, the Potency was inconclusive [inhibitor, single point].
In the case of `Cc1ccc(NC(=O)CCn2cnc3ccccc3c2=O)cc1Cl`, the “activity, negative = inhibition” value is reported as inactive: 0.272%.
With `COc1cc(O)c(NC(C)=O)c2nonc12` the “activity, negative = inhibition” value was inactive: -4.25%.
With `Cc1ccc(C(C)C)c(OC(=O)/C=C/c2ccccc2)c1` the “activity, negative = inhibition” value was inactive: 3.77%.
In the case of `COc1ccc(SCC(=O)c2cc(C)c(OC(=S)N(C)C)c(C)c2)cc1`, the Potency is reported as inconclusive [inhibitor, single point].
For `Cc1cnn(-c2nc(-c3cccs3)cc(C(F)(F)F)n2)c1`, the Potency was inconclusive [inhibitor, partial curve].
`Cc1ccc(NC(=S)N(CCN2CCCCC2)Cc2ccco2)cc1` was tested, and the Potency was inconclusive [inhibitor, single point].
With `CC(=O)Nc1c(O)c2ccccc2[nH]c1=O` the Potency was inconclusive [inhibitor, single point].
`CN(C)S(=O)(=O)c1ccc(N2CCCC2)c(C(=O)Nc2ccccc2OC(F)F)c1` was tested, and the Potency was inconclusive [inhibitor, single point].
In the case of `CCOC(=O)N1CCN(C(=O)CSc2nnc(CNC(=O)c3c(F)cccc3Cl)o2)CC1`, the “activity, negative = inhibition” value is reported as inactive: 1.96%.
For `O=C(CCCCn1c(=O)c2ccccc2n(CC(=O)Nc2cccc(F)c2)c1=O)NCc1ccco1`, the Potency was inconclusive [inhibitor, single point].
`CCOC(=O)N1CCN(Cc2nc3c(c(=O)n(C)c(=O)n3C)n2Cc2cccc(C)c2)CC1` was tested, and the Potency was active: 0.0794 µM.
With `S=C(Nc1ccccc1)N1CCn2c1nc1ccccc12` the “activity, negative = inhibition” value was inactive: -9%.
With `COc1ccc(/C=N/n2c(C)nnc2C)c(OC)c1OC` the Potency was inconclusive [inhibitor, single point].
With `Brc1ccc(OCc2nnnn2-c2ccccc2)cc1` the Potency was inconclusive [inhibitor, partial curve].
`O=C(CSc1nc2c(sc3ccccc32)c(=O)n1CCCN1CCCC1)NCC1CCCO1` (configuration not stated) was tested, and the Potency was inconclusive [inhibitor, partial curve].
For `O=C(CN(CCO)c1ccccc1)NC12CC3CC(CC(C3)C1)C2`, the Potency was inconclusive [inhibitor, single point].
With `O=C(NCCOc1ccccc1Cl)C(=O)NCCOc1ccccc1Cl` the “activity, negative = inhibition” value was inactive: -0.607%.
In the case of `CCOc1cc(/C=N/Nc2nc(Nc3ccccc3)nc(N3CCCCC3)n2)ccc1OCC(=O)O`, the “activity, negative = inhibition” value is reported as inactive: 5.62%.
With `COc1ccc(S(=O)(=O)N(CCCN2CCOCC2)Cc2cccc(OC)c2OC)cc1` the Potency was inconclusive [inhibitor, partial curve].
For `COCCOC(=O)C1=C(C)OC(N)=C(C#N)C1c1cc2cccc(C)c2nc1Cl` (configuration not stated), the Potency was inconclusive [inhibitor, partial curve].
In the case of `Cc1ccc(-c2noc(C3CCCN(C(=O)c4c(F)cccc4F)C3)n2)cc1` (configuration not stated), the Potency is reported as inconclusive [inhibitor, single point].
For `COc1ccc(O)c(N)c1`, the Potency was active: 25.1 µM.
`COc1ccc(C2NC(=O)NC(O)(C(F)(F)F)C2C(=O)c2ccc(F)cc2)cc1` (configuration not stated) was tested, and the Potency was inconclusive [inhibitor, single point].
`O=c1cnnc(Nc2ccc(Cl)c(C(F)(F)F)c2)[nH]1` was tested, and the Potency was inconclusive [inhibitor, single point].
In the case of `O=S(=O)([N-]c1nc2ccccc2nc1-[n+]1ccccc1)c1ccc(Cl)cc1`, the Potency is reported as inconclusive [inhibitor, partial curve].
With `C=CCn1c(SCC(=O)NC2CC2)nc2sc(CC)cc2c1=O` the Potency was inconclusive [inhibitor, partial curve].
In the case of `CCOC(=O)C1=C(C(F)(F)F)Nc2ncnn2C1c1cc(OC)ccc1OC` (configuration not stated), the Potency is reported as inconclusive [inhibitor, single point].
For `Cc1ccc(C(=O)CC2(O)C(=O)N(Cc3ccccc3)c3ccccc32)o1` (configuration not stated), the Potency was active: 0.708 µM.
`COc1ccc(C(=O)CSc2nnc(CN3CCCC3)n2-c2ccc(F)cc2)c(OC)c1` was tested, and the Potency was inconclusive [inhibitor, partial curve, poor fit].
In the case of `CC(C)(C)n1ncc2c(=O)n(CC(=O)Nc3ccc(Cl)cc3)cnc21`, the “activity, negative = inhibition” value is reported as inactive: -5.54%.
`COc1cc(CCC(=O)N2CCN(c3ccc(N4CCOCC4)nn3)CC2)cc(OC)c1OC` was tested, and the Potency was inconclusive [inhibitor, partial curve].
With `Cc1ccc(NCc2nnc(SCC(=O)NCc3ccco3)n2CC2CCCO2)c(C)c1` (configuration not stated) the “activity, negative = inhibition” value was inactive: -15.3%.
For `O=C(N/C(=C/c1ccco1)C(=O)N1CCCCCC1)c1cccs1`, the Potency was inconclusive [inhibitor, single point].
`Cc1ccccc1C(=O)NC(NCC1CCCO1)C(Cl)(Cl)Cl` (configuration not stated) was tested, and the “activity, negative = inhibition” value was inactive: 1.65%.
`O=C1/C(=C\Nc2ccccc2)CCN1c1ncccn1` was tested, and the Potency was active: 20 µM.
With `CCOC(=O)N1CCC(N(CCN(C)C)C(=S)Nc2cccc(OC)c2)CC1` the “activity, negative = inhibition” value was inactive: -3.3%.
For `CC(/C=N/NC(=O)c1cc(-c2ccccc2)nc2ccccc12)=C\c1ccco1`, the Potency was inconclusive [inhibitor, partial curve].
With `O=C(NCc1ccc2c(c1)OCO2)c1ccc(CSCc2ccccc2Cl)o1` the Potency was inconclusive [inhibitor, single point].
With `Cc1ccc(/C=C/C(=O)N2CCCC(C(N)=O)C2)o1` (configuration not stated) the Potency was active: 14.1 µM.
In the case of `CN1CC[C@@]2(CCCN(C(=O)c3cc(C(F)(F)F)cc(C(F)(F)F)c3)C2)C1`, the “activity, negative = inhibition” value is reported as inactive: -3.07%.
In the case of `COc1cccc(CN(CC2CCCO2)S(=O)(=O)c2ccc(S(=O)(=O)N(C)C)cc2)c1` (configuration not stated), the Potency is reported as active: 2.82 µM.
For `COc1ccc(N(CC(=O)Nc2ccc(C)cc2C)S(=O)(=O)c2ccccc2[N+](=O)[O-])c(OC)c1`, the “activity, negative = inhibition” value was inactive: 4.62%.
For `COc1ccc(CNS(=O)(=O)c2ccc3oc(C(=O)O)c(C)c3c2)cc1`, the Potency was inconclusive [inhibitor, partial curve].
`CCCc1cc(=O)oc2c(CN3CCN(C)CC3)c(O)c(Cl)cc12` was tested, and the Potency was inconclusive [inhibitor, full curve].
